# Measurements: article PMC4336329 (PLoS ONE, 2015)
# Among all 310,000 compounds or so, about 2,200 (0.71%) showed an effect of 50% or more. The effect is printed as a negative number. This is one part of the list.
# Target: human ether-à-go-go-related gene (hERG) potassium channel (human, UniProt Q12809)
# Assay: primary screen, population patch clamp on CHO cells stably expressing hERG
# human ether-à-go-go-related gene (hERG) potassium channel, sequence (Q12809 whole entry, looked up): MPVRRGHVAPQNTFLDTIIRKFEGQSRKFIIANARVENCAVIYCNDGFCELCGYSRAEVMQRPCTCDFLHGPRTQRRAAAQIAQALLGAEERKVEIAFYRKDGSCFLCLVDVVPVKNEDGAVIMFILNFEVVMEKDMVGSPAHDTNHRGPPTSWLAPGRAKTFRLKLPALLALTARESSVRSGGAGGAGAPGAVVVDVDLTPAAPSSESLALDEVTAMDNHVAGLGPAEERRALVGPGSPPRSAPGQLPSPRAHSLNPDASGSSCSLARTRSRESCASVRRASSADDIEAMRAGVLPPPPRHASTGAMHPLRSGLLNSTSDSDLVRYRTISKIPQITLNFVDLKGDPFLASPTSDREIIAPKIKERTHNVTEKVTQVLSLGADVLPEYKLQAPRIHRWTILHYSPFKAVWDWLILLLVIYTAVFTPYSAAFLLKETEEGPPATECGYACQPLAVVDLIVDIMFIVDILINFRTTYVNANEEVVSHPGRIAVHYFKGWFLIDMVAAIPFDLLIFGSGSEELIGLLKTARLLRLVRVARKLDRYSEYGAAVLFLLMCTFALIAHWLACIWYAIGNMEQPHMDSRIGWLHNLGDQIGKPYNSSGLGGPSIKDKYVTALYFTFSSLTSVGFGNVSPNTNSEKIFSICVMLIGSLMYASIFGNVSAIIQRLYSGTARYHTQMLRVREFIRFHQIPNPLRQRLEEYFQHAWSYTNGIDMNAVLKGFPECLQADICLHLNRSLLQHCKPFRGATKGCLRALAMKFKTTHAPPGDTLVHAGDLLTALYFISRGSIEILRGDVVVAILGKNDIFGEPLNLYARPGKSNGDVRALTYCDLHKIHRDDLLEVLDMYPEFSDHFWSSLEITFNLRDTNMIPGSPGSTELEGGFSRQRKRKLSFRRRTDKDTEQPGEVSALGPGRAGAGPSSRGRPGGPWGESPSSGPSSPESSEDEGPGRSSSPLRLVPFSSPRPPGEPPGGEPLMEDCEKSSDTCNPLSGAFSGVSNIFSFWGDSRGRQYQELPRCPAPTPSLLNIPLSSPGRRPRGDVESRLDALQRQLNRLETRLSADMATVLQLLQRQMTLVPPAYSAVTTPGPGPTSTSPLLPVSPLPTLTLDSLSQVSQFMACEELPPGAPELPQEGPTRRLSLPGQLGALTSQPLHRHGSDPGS
row,Compound,"hERG current change (%, negative = inhibition) at 1uM [%]"
1,COc1ccccc1NC(=O)CCC(=O)OC(C)C(=O)c1ccccc1 (stereo not shown),14.2
2,COc1cccc(NS(=O)(=O)c2ccc3c(c2)NC(=O)C(C)S3)c1 (stereo not shown),-2.68
3,CCC(=O)Oc1cccc(C(=O)Nc2ccc(-c3nnc(-c4ccco4)o3)cc2)c1,7.4
4,CC(C)(C)c1ccc(/C=C/C(=O)Nc2ccncc2)cc1,8.86
5,COc1ccc(CCN(C)C(=O)c2cc(-c3ccccc3)nc3ccc(C)cc23)cc1OC,-2.82
6,CCN1CCCc2cc(CN(CCN3CCOCC3)C(=S)Nc3ccc(OC)c(Cl)c3)ccc21,10.1
7,COc1cc2ccccc2cc1C(=O)NC(=S)Nc1cccc(C(=O)O)c1,13.5
8,CCCn1c(SCC(=O)Nc2nc3ccccc3s2)nc2c1c(=O)n(C)c(=O)n2C,6.47
9,NC(N)=Nc1ccc(N=C(N)N)cc1,13.7
10,CC(C)Cc1nnc(NC(=O)c2cc(-c3ccncc3)nc3ccccc23)s1,5.36
11,CSc1c(CC(=O)NCCO)n(C)c2ccccc12,16.9
12,Cc1c(Cl)c([N+](=O)[O-])nn1CCCC(=O)Nc1sc2c(c1C#N)CCC2,-4.51
13,COc1cc(SC)ccc1C(=O)Nc1ccc(C)cc1,15.4
14,C=CC[N+]1(CC#Cc2ccccc2)CCCC1.[Br-],16.6
15,CC(Oc1ccc2ccc(=O)oc2c1)C(=O)NCCCn1ccnc1 (stereo not shown),32.6
16,COc1cccc(-c2c(C(=O)N/N=C(\C)c3cccnc3)nnn2-c2nonc2N)c1,24.9
17,COc1ccccc1N(C)S(=O)(=O)c1ccc(Cl)c(C(=O)Nc2cccc(C)n2)c1,8.95
18,O=C(Oc1ccc2c(=O)c(Oc3ccc4ccccc4c3)coc2c1)c1cncc(Br)c1,6.78
19,CCCCNC(=O)c1cn(C)c2ccc(S(=O)(=O)N3CC(C)CC(C)C3)cc2c1=O (stereo not shown),-5.81
20,CCCCn1c(N)c(N(CCOC)C(=O)c2cc(-c3ccco3)nc3ccccc23)c(=O)[nH]c1=O,4.86
21,Cc1cc(NC(=O)CSc2nnnn2-c2ccc(C)c(C)c2)no1,9.56
22,COc1ccc(NC(=O)C2CCN(S(=O)(=O)c3ccc4[nH]c(=O)oc4c3)CC2)c(OC)c1,23.2

row,Compound,"hERG current change (%, negative = inhibition) at 1uM [%]"
1,CC(=O)NS(=O)(=O)c1ccc(N=NN2CCCCCC2)cc1,16.1
2,Clc1ccccc1OCCCn1ccnc1,14.6
3,NC(=O)c1ccc(-c2noc(-c3ccccc3F)n2)cc1,7.87
4,O=C(CCSc1ccccc1)NC1CCCCCC1,6.43
5,CC(Sc1nc2sc3c(c2c(=O)n1-c1ccccc1)CCCC3)C(=O)O (stereo not shown),6.44
6,CCC(C)(C)NC(=O)CCCSc1nc2ccccc2[nH]1,7.75
7,O=C(COC(=O)CNC(=O)c1sc2ccccc2c1Cl)NC1CCS(=O)(=O)C1 (stereo not shown),5.29
8,CCOc1ccc(Cn2nnc(C(=O)NCc3ccccc3)c2N)cc1,13.2
9,CCn1c(C)c(C)c2cc(C(=O)N3CCN(c4cccc(C)c4C)CC3)ccc21,12.9
10,Cc1ccc(OCC(=O)Nc2ccc3c(c2)nc(CCN2CCOCC2)n3C)cc1,-19.8
11,CC1CCCCC1NC(=O)COC(=O)c1ccc2c(c1)OCCO2 (stereo not shown),4.39
12,COc1ccccc1NC(=O)CN1CCN(c2ccccn2)CC1,5.94
13,Cc1ccc(Nc2nc(-c3ccncc3)nc3ccccc23)cc1,5.97
14,Cc1ccccc1Nc1nc(N)nc(CN2CCN(Cc3ccc4c(c3)OCO4)CC2)n1,-45.4
15,CS(=O)(=O)c1ccc2nc(NC(=O)Nc3ccc(Cl)c(Cl)c3)sc2c1,11.3
16,CCOc1ccc(S(=O)(=O)NCCC(=O)N2CCN(c3ccc(OC)cc3)CC2)cc1,-0.134
17,COc1ccccc1CCC(=O)N(Cc1ccccc1)c1c(N)n(Cc2ccccc2)c(=O)[nH]c1=O,15.6
18,CCN(CC)C(=O)CN1C(=O)NC2(CCc3ccccc3C2)C1=O (stereo not shown),17.5
19,COc1ccc(NC(=O)c2cn(-c3ccccc3)nc2-c2cc3ccccc3o2)cc1,8.34
20,CC(C)(C)C1CCC(OCC(O)CN2CCCC2)CC1.Cl (stereo not shown),3.85
21,COc1cc2c(cc1OC)C(C)N(C(=O)c1cc3n(n1)C(C(F)(F)F)CC(c1ccco1)N3)CC2 (stereo not shown),8.83
22,CCOc1ncccc1C(=O)OCC(=O)N1CC(=O)Nc2ccccc21,8.47

row,Compound,"hERG current change (%, negative = inhibition) at 1uM [%]"
1,CC1CC(O)(CC(O)(c2ccccc2)c2ccccc2)C(C)CN1C (stereo not shown),11.2
2,C/C(=N/NS(=O)(=O)c1ccc(Cl)cc1)c1cccc(NC(=O)c2ccc(Cl)cc2Cl)c1,11.1
3,O=S(=O)(c1ccccc1)N1CCN(Cc2ccccc2)CC1,16.9
4,COc1cccc(/C=C2\SC(=S)N(CCC(=O)N3CCCCC3)C2=O)c1,16
5,COc1ccc(OC)c(N(CC(=O)NC2CCCCCC2)S(=O)(=O)c2ccc(C)cc2)c1,12
6,CC(=NC1CCCCC1)C1=C(O)c2ccccc2C1=O,3.46
7,C#CC1(NC(=O)NC(C)(C)C)CCCCC1,17.3
8,O=C(O)c1ccc(NC(=O)c2cn(-c3ccccc3)nc2-c2cccc(Cl)c2)cc1,15
9,CNCC(O)c1ccc(O)c(O)c1.Cl (stereo not shown),16.6
10,COC(=O)C1CCN(C(=O)COc2cc3sc(C)nc3c3sccc23)CC1,6.44
11,O=C(CCn1[nH]c(=O)c2ccccc2c1=O)OC1CCCCC1,16.1
12,Cc1nc2c(C(=O)NCc3ccc4c(c3)OCO4)c[nH]n2c(=O)c1Cc1ccccc1F,2.53
13,Cn1c(=O)oc2cc(S(=O)(=O)N3CCN(c4ccccn4)CC3)ccc21,10.8
14,CC(=O)c1ccc(NC(=O)c2ccc3nc(C)sc3c2)cc1,12.9
15,CCOC(=O)N1CCN(C(=O)COC(=O)CN(C)S(=O)(=O)c2ccc(NC(C)=O)cc2)CC1,8.03
16,O=C(O)CCN1c2ccccc2Sc2ccccc21,13.5
17,CC(C)CC(COCc1ccc(C(F)(F)F)cc1)N1CCN(C(=O)c2ccc(C(F)(F)F)cc2)CCC1=O (stereo not shown),3.51
18,O=C(/C=C/c1ccco1)Nc1ccc2c(c1)OCO2,12.6
19,CN(C(=O)CSc1nnnn1-c1ccccc1)C1CCS(=O)(=O)C1 (stereo not shown),9.7
20,O=C(OCC(=O)N1CCOCC1)c1ccc(Cl)nc1,12.3
21,O=C(Nc1cccs1)Nc1c(F)c(F)cc(F)c1F,10.7
22,O=C(NCC1CCCO1)c1ccc(Br)o1 (stereo not shown),15.7

row,Compound,"hERG current change (%, negative = inhibition) at 1uM [%]"
1,COCCCNC(=O)c1cc(C(=O)c2ccccc2Br)c[nH]1,11.5
2,CCOc1ccc(Cl)cc1/C=N/NC(=O)CNC(=O)c1ccccc1,5.81
3,COc1ccc(C)cc1NC(=O)CCNC(=O)Cn1ccc2ccccc2c1=O,15.1
4,O=C(/C=C/c1ccc(OC2CSC2)cc1)c1ccccc1,12.6
5,O=C(COc1ccccc1Br)NCCC1=CCCCC1,8.65
6,CCC(CC)c1nnc(NC(=O)CCCN2C(=O)c3ccccc3C2=O)s1,-9.25
7,COc1ccc(CC(=O)Nc2ccc(C(=O)NCC(C)C)cc2)cc1,7.15
8,CCOc1ccccc1C(=S)NC1CCCCC1,13.4
9,COc1ccc(Nc2nc(-c3ccc(OC)cc3)c(CCC(=O)O)s2)cc1,12.3
10,O=C(c1cc2cc(F)ccc2[nH]1)N1CCN(C(=O)c2ccco2)CC1,-9.87
11,Cn1cc(/C=C(\C#N)C(=O)Nc2cccc([N+](=O)[O-])c2)c2ccccc21,15.2
12,CC(NC(=O)CCc1nnc(-c2ccc(-c3ccccc3)cc2)o1)c1nccs1 (stereo not shown),8.09
13,Cc1nc(NC(=O)c2ccco2)sc1-c1csc(Nc2ccc(Cl)cc2Cl)n1,6.16
14,Cc1cc(N2CCOCC2)nc(-c2ccc([N+](=O)[O-])cc2)n1,1.06
15,O=C(CCN1C(=O)c2ccccc2C1=O)Nc1cccc(F)c1,-2.2
16,Cc1ccccc1N(C(=O)CS(=O)CC(=O)Nc1ccc(F)cc1)C(C)C(=O)NC(C)(C)C (stereo not shown),12.8
17,CCOC(=O)Nc1ccc2c(c1)N(C(=O)N(CC)CC)c1ccccc1CC2,8.26
18,COCCNC(=O)CN1C(=O)C(C)N=C(c2ccccc2)c2cc(Cl)ccc21 (stereo not shown),-1.11
19,N#Cc1ccc(Oc2ccc(S(=O)(=O)N3CCOCC3)cn2)cc1,-5.47
20,Cc1ccc(NC(=O)CCc2nc3sc4c(c3c(=O)[nH]2)CCCC4)c(Br)c1,8.26
21,Cc1cc(NC(=O)CSc2nc3c(sc4ccccc43)c(=O)n2CCc2ccccc2)n[nH]1,-17.9
22,COC(=O)c1c(NC(=O)c2ccco2)sc(C)c1C,13
